Each structure is given as a SMILES string. The list shows a part of the results.

The subject of the experiment is S. aureus RN4220. Briefly: growth inhibition call (relative growth <= 0.2). The note with it: 50 µM.
On to `O[C@@H]1[C@@H](O)[C@H](O)OC[C@H]1O`, for which the growth inhibition call is “inactive”.

In the case of `Cn1cnc([N+](=O)[O-])c1Cl`, the growth inhibition call is “inactive”.

On to `O=C(C[C@H]1CC[C@H]2[C@@H](COC[C@H](O)CN2C(=O)c2ccccc2F)O1)N1CCN(c2ccccc2)CC1`, for which the growth inhibition call is “inactive”.

For the compound `COc1ccccc1NC(=O)N(C)C[C@@H]1Oc2cc(Br)ccc2S(=O)(=O)N([C@H](C)CO)C[C@@H]1C`, the growth inhibition call is “inactive”.

For the compound `C[N+](C)(C)CCCC[C@@H]1NC(=O)[C@@H]2C[C@H](C(=O)NCc3ccc(F)cc3)[C@H](c3cccc(OCCO)c3)N2C1=O`, the growth inhibition call was “inactive”.

For the compound `COc1nc(N)nc2nc[nH]c12`, the growth inhibition call was “inactive”.

As to `Cc1noc(C)c1NC(=O)Nc1ccc2c(c1)C(=O)N([C@H](C)CO)C[C@H](C)[C@H](CN(C)C(=O)Nc1c(C)noc1C)OCCCC[C@H](C)O2`, the growth inhibition call is “inactive”.

For the compound `C[C@@H]1CN([C@@H](C)CO)C(=O)c2cccc(NC(=O)NC3CCCCC3)c2O[C@@H]1CN(C)S(C)(=O)=O`, the growth inhibition call is “inactive”.

Take `Cc1ccc(-c2ccc3c(c2)O[C@@H](CN(C)C(=O)NC(C)C)[C@@H](C)CN([C@@H](C)CO)S3(=O)=O)cc1`: the growth inhibition call is “inactive”.

Consider `C=C1C(=O)C(O)[C@@H]2O[C@@H]2C1=O` (stereo partly drawn), for which the growth inhibition call is “inactive”.

For `COCCNC(=O)NC(=O)COC(=O)c1cccn1C`, the growth inhibition call is “inactive”.

For `C[C@@H]1CN([C@@H](C)CO)C(=O)c2cc(C#CCc3ccccc3)cnc2O[C@@H]1CN(C)CC1CCOCC1`, the growth inhibition call was “inactive”.

For `COc1ccc(CN(C)C[C@H]2OCCCC[C@@H](C)Oc3ccc(NC(=O)Cc4ccccc4)cc3C(=O)N([C@H](C)CO)C[C@H]2C)cc1`, the growth inhibition call is “inactive”.

Consider `C[C@@H]1CN([C@H](C)CO)C(=O)c2cc(NC(=O)CCC(F)(F)F)ccc2O[C@@H](C)CCCCO[C@H]1CN(C)C(=O)Nc1ccc2c(c1)OCO2`, for which the growth inhibition call was “inactive”.

For `C[C@@H]1CCCCO[C@@H](CN(C)S(=O)(=O)c2ccccc2)[C@H](C)CN([C@@H](C)CO)C(=O)c2cc(NC(=O)Nc3cccc4ccccc34)ccc2O1`, the growth inhibition call is “inactive”.

Take `NCc1cnn(-c2ccc(F)cc2)c1`: the growth inhibition call is “inactive”.

For the compound `CC(C)c1ccccc1OC[C@@H](O)CN`, the growth inhibition call was “inactive”.

On to `CCCC[C@@H](C#N)c1ccc(F)cn1`, for which the growth inhibition call was “inactive”.

Consider `NC(N)=O`, for which the growth inhibition call is “inactive”.

For `C[C@@H]1CN([C@@H](C)CO)C(=O)c2cc(NS(=O)(=O)c3ccc(F)cc3)ccc2O[C@@H]1CN(C)S(=O)(=O)c1ccc(F)cc1`, the growth inhibition call was “inactive”.

With `Cc1noc(C)c1NC(=O)N(C)C[C@@H]1OCCCC[C@H](C)Oc2ccc(NC(=O)Nc3cccc4ccccc34)cc2C(=O)N([C@@H](C)CO)C[C@H]1C`, the growth inhibition call is “inactive”.

As for `CC(C)NC(=O)Nc1ccc2c(c1)C(=O)N([C@@H](C)CO)C[C@@H](C)[C@H](CN(C)Cc1ccccc1)OCCCC[C@H](C)O2`, the growth inhibition call was “inactive”.

As to `COc1ccc(NC(=O)Nc2ccc3c(c2)C(=O)N([C@H](C)CO)C[C@H](C)[C@H](CN(C)Cc2ccc(C(=O)Nc4ccccc4N)cc2)O3)cc1`, the growth inhibition call is “inactive”.

As to `CO[C@@H]1CN(C)C(=O)c2ccc(NC(=O)C3CC3)cc2OC[C@@H](C)N(C(=O)CN2CCOCC2)C[C@@H]1C`, the growth inhibition call was “inactive”.

Regarding `CO[C@@H]1CN(C)C(=O)c2ccc(NC(=O)c3ccc(F)cc3)cc2OC[C@@H](C)N(C(=O)CN(C)C)C[C@@H]1C`, the growth inhibition call was “inactive”.

Regarding `C[C@@H]1CN([C@H](C)CO)S(=O)(=O)c2ccc(C#Cc3ccncc3)cc2O[C@H]1CN(C)S(=O)(=O)c1ccccc1`, the growth inhibition call is “inactive”.

In the case of `C[C@H](CO)N1C[C@H](C)[C@H](CN(C)Cc2ccncc2)Oc2ccc(NC(=O)Nc3cccc4ccccc34)cc2C1=O`, the growth inhibition call was “inactive”.

In the case of `C[C@H](CO)N1C[C@H](C)[C@H](CN(C)C(=O)Nc2ccc(F)cc2)OCCCC[C@H](C)Oc2ccc(NC(=O)C3CC3)cc2C1=O`, the growth inhibition call was “inactive”.

On to `C[C@H](CO)N1C[C@H](C)[C@H](CN(C)S(=O)(=O)c2cn(C)cn2)Oc2ccc(N(C)C)cc2CC1=O`, for which the growth inhibition call was “inactive”.

On to `O=C(Cn1nncc1COc1ccc2ccccc2c1)NS(=O)(=O)c1ccccc1OC(F)(F)F`, for which the growth inhibition call is “inactive”.

Take `CCS(=O)(=O)N1CC[C@]2(CC1)CN([C@H](CO)c1c2c2ccc(cc2n1C)OC)C(=O)c1ccc(cc1)F`: the growth inhibition call was “inactive”.

As to `C[C@@H]1CCCCO[C@@H](CN(C)Cc2ccc(Cl)c(Cl)c2)[C@H](C)CN([C@@H](C)CO)C(=O)c2cc(NC(=O)Nc3cccc4ccccc34)ccc2O1`, the growth inhibition call was “inactive”.

As for `Cc1ccc(S(=O)(=O)Nc2ccc3c(c2)C(=O)N([C@@H](C)CO)C[C@H](C)[C@H](CN(C)C(=O)Cc2ccccc2)OCCCC[C@@H](C)O3)cc1`, the growth inhibition call was “inactive”.

These data come from the antibiotic and cytotoxicity screens of Wong et al. (2023).
